Measured values published in US10435371B2, “Multifunctional aminoquinoline therapeutic agent” (LOHOCLA RESEARCH CORPORATION, priority 2014, dated 2019).
Like-named read-outs stand apart in the source and are kept apart here.

Assays:
delta opiate receptor = delta opiate receptor (Homo sapiens, UniProt P41143); test: cAMP accumulation, HEK293 cells transfected with DA receptor, delta opiate receptor and AC7; assay type: cell-based; set-up: expressed in transfected cells; host or cells: HEK293 (ATCC), calcium phosphate transient transfection
delta opiate receptor, sequence (P41143 whole entry): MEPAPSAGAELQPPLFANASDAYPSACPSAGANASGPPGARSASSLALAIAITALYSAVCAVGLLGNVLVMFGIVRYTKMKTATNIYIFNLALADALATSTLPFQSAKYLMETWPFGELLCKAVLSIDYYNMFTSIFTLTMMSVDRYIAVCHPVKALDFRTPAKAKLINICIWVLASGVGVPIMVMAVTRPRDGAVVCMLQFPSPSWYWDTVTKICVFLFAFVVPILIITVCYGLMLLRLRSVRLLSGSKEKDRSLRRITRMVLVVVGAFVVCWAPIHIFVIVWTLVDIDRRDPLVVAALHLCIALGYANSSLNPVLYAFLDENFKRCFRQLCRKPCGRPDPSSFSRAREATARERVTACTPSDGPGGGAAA

MOR (μ opiate receptor) = MOR (μ opiate receptor) (Homo sapiens, UniProt P35372); test: PDSP radioligand binding, [^3H]DAMGO
MOR (μ opiate receptor), sequence (P35372 whole entry): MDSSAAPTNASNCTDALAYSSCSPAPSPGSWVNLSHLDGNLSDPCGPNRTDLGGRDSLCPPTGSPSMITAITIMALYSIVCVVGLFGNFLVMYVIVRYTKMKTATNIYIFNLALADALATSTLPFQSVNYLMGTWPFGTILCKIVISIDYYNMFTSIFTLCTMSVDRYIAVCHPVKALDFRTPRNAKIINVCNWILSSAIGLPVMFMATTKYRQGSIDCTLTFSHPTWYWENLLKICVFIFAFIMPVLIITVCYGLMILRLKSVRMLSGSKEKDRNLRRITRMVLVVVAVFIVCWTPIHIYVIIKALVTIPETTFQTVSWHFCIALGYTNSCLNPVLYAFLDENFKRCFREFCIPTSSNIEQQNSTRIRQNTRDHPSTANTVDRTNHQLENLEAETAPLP

[1] = molecular target: T1, Delta Opiate Receptor (DOR) (Homo sapiens, UniProt P41143); test: biochemical
T1 sequence (P41143 whole entry): as the sequence (P41143 whole entry) above

[2] = molecular target: T1, Delta Opiate Receptor (DOR); settings: read-out: Binding constant Ki, Delta Opiate Receptor; radioligand displacement

| Character of action at the delta opiate receptor (delta opiate receptor) | Effect on cAMP accumulation in the presence of dopamine (delta opiate receptor; DOR, BCUKA 10 and 20 μM, DPDPE 1 μM, FIG. 2) | Ki (MOR (μ opiate receptor)) | Compound | Ki [1] | Ki [2] |
| --- | --- | --- | --- | --- | --- |
| agonist | increased cyclic AMP accumulation | > 10 µM | CCCCN(CCCC)C(=O)Nc1cc(C(=O)O)nc2cc(Cl)cc(Cl)c12 [BCUKA, 5,7-dichloro-4-(3,3-dibutylureido)quinoline-2-carboxylic acid] | 1.7 ± 0.41 µM | – |
| – | – | – | CCOC(=O)c1cc(NC(=O)N(c2ccccc2)c2ccccc2)c2c(Cl)cc(Cl)cc2n1 [DCUK-OEt] | – | > 10 µM |
| – | – | – | O=C(O)c1cc(NC(=O)N(c2ccccc2)c2ccccc2)c2c(Cl)cc(Cl)cc2n1 [DCUKA, 5,7-dichloro-4-(3,3-diphenylureido)quinoline-2-carboxylic acid] | 4.5 ± 0.73 µM | – |
